The text below walks through data of article PMC12136788.

To fix the notation:
B1: chr1:39494447:39494448:+_ENSG00000168653_ENST00000372967|hu_mus|hu_hu_hu_mus_False|1_58 (ssRNA)
RNA: GGGAGUUCUACAGUCCGACGAUCGCACCGAGCGGCGUUCUUAUAGGGCUGUUCUGCGCUUAGGAACAUAAAGUGCCGAUCUAUGUUGAUGCCCAGCUUUUUCUGUAUGUCAAGGAAAGGCAUGGCUCUGCAGUGCCCCCUUGACAACAGAGGAUUGAGCAUCA
B2: chr1:109605286:109605287:-_ENSG00000197780_ENST00000461096|hu_mus|hu_hu_hu_mus_True|98_98 (ssRNA)
RNA: GGGAGUUCUACAGUCCGACGAUCAAGUUUCAGAGUAUUCAGUGAUCACCUCUUUAAAUGCAAUUAUCCUUAUUAUAAGCUAAGCAGAAUAAUAAUUUAAUACCGUAAGUGAACUACACACAAAGCCUGAACCGCGAAAAUGGUCAACAGAGGAUUGAGCAUCA
B3: chr13:55314840:55314841:+_ENSMUSG00000021488_ENSMUST00000099490|mus_hu|motif|central (ssRNA)
RNA: GGGAGUUCUACAGUCCGACGAUCAUCACUUUUUUCAGGGUCUUGAAAGGAUUCUGAUCCAUCAGCAGACCCAUUUAAAUACUCGGCAUUGAUCAUGGAGGCCAAAUCCUGUAGUCUCCGCAGUGGAAUGUAACAAGAUGGAGACAACAGAGGAUUGAGCAUCA
B4: chr9:71842732:71842733:+_ENSG00000119139_ENST00000377245|hu_mus|FALSE|FALSE (ssRNA)
RNA: GGGAGUUCUACAGUCCGACGAUCAUCCUGAUCAGAAUACUGCUGGCGUCUCUCCUCUGGAGAGAAAGACCGGUUGGACUCUAUUUCCGAGAUAUCCUCCACUUCAGAGUCGCUGUCGUUUAGGGCUGGGAUGUUGAUGAGGGUCAACAGAGGAUUGAGCAUCA
B5: chr12:48362563:48362564:+_ENSG00000134291_ENST00000256686|hu_hu|hu_hu_hu_mus_False|28_88 (ssRNA)
RNA: GGGAGUUCUACAGUCCGACGAUCUCCGUCAAGCCCUUCGAUAGACCCAUAGACUCUAAACUGUAAUCACUUUGUAUGGGGAAGGAAAAGAAACGCCAAAAACUUUCUUUCUUUCUUGGGUGGGGUGAGGCGGGAGGGGGAGGUCAACAGAGGAUUGAGCAUCA
B6: chr3:123074269:123074270:-_ENSMUSG00000028114_ENSMUST00000029759|perfect_dup|FALSE|FALSE (ssRNA)
RNA: GGGAGUUCUACAGUCCGACGAUCGCGUCUUCUACCAAGACAAAAAUGCUCAAUUAUAUGAAAAAUUUCUACAGGUUUUUCUAUAUUGCCAAUUUCAGGUUCUUCUGUGAUAAUUAAGUCAAUGUCAACAUUAGCAUGAAUGAACAACAGAGGAUUGAGCAUCA
B7: chr16:94653416:94653417:+_ENSMUSG00000040785_ENSMUST00000117648|mus_mus|motif|central (ssRNA)
RNA: GGGAGUUCUACAGUCCGACGAUCCACGACGUGGAAAUCAAGCUCCUUGAGAGAUGCUCCGUACCGAGUGAAAAAGGGUCCGGUGGCAUCCAAGCCAAAACUAUUCAGUCUCUGGAUCCAGGGAGCCAACUUGGGGUCUAACUCCAACAGAGGAUUGAGCAUCA
B8: chr1:95363323:95363324:-_ENSG00000117519_ENST00000538964|hu_mus|FALSE|FALSE (ssRNA)
RNA: GGGAGUUCUACAGUCCGACGAUCGGACUAAAUACUGCGCUCCUGUGUGUGACUCUAAUAAUCAAUGCCCUGGUCGUCGCCAUACUGGUACUCCCGAGGGUAGUCGUCUGGGUACUCGCCAUGAUAUUCAUCGGGGUAUUCUGCCAACAGAGGAUUGAGCAUCA
B9: chr8:74858975:74858976:-_ENSG00000154582_ENST00000284811|hu_mus|motif|central (ssRNA)
RNA: GGGAGUUCUACAGUCCGACGAUCGACCUUGUAGGUAAAAUACAUGCACACUUUUGAUAGCACAUGUGAGGGGAUCUCUCGGAAAUUGACCUCGUUGGUUUCAUUCUCAGCAAACUGACCUGGACCACUCAACAUAGCCUUUAUCAACAGAGGAUUGAGCAUCA
B10: chr1:163112212:163112213:-_ENSG00000143248_ENST00000313961|hu_hu|hu_hu_hu_mus_False|1_108 (ssRNA)
RNA: GGGAGUUCUACAGUCCGACGAUCUUUAUUUAUCCAGAAGAGUGAGUUACAUACUAGGCAAAGUAUUGGAUACAAUAAUCAGGAAACAAACACUAUUGGUCCAGAAUUUAAAACUUUAUGAGCGAAGUGCUGGCACAGGAUUUACAACAGAGGAUUGAGCAUCA
B11: chr4:58499471:58499472:-_ENSMUSG00000038668_ENSMUST00000055018|mus_mus|motif|central (ssRNA)
RNA: GGGAGUUCUACAGUCCGACGAUCAGCGUAGAGAACCACCAUGACCACAAAGGUCACCAGGUUGAAAAUGGCCCAGAAGACGGAGUAGGAGUCACUGUAGAGGGGUGCCAUGUUGGAACAGUGAUCGAUAUCACAGAUGCAGUUCAACAGAGGAUUGAGCAUCA
B12: chr2:179515052:179515053:+_ENSMUSG00000000305_ENSMUST00000000314|mus_hu|mus_mus_mus_hu_False|88_88 (ssRNA)
RNA: GGGAGUUCUACAGUCCGACGAUCGCUGUCCCAUGCAGUCACCGUGAAGGCCACCUGCUCGGAGGGGACCUGCAGCUCCCGGGUGGCGAAGACUGUCCCAUCUGCCCCAACUUUGAAGUCCAUGCUGUUGGUCUCAUAUUGUGUCAACAGAGGAUUGAGCAUCA
B13: chr16:94690093:94690094:+_ENSMUSG00000040785_ENSMUST00000117648|mus_hu|mus_mus_mus_hu_True|28_68 (ssRNA)
RNA: GGGAGUUCUACAGUCCGACGAUCGGGCUGGGAUGACGGACACACAGCCUCGAUUCCAGGGGGAAAAAAAAAUAGCCGAUACUAAUUAAAAAGUGUUAAUGAUUUUUAUUACCAAAAUUACAUCUAUAAAAGAUGAAAAGCAAACAACAGAGGAUUGAGCAUCA
B14: chr14:78183846:78183847:+_ENSG00000119705_ENST00000557342|hu_hu|hu_hu_hu_mus_False|98_108 (ssRNA)
RNA: GGGAGUUCUACAGUCCGACGAUCUCUGUCUCAAAAAUCUUUCUUUUAUGUUUGAGCUCCGUGCAAAGCCUUUGCUCUUUGAGCUUGAACGUGGAUCUAUGGGAGGGAAAGCACUGUCAGAAAAGGUAAUUUUUUUUUUAAAGACAACAGAGGAUUGAGCAUCA
B15: chr7:135612270:135612271:-_ENSG00000105887_ENST00000393085|hu_mus|hu_hu_hu_mus_False|38_98 (ssRNA)
RNA: GGGAGUUCUACAGUCCGACGAUCGUUUUUUUCUGAGUAAGUAUUACGUACUUCAGUGGAAAACAAAACUUAACCUUUUAUUAAUGCGUGUUGUACCAGAAAGCAAAAUUUUAGCUUCAUUUAUUCAAAAAUAUUAACAUUAAGCAACAGAGGAUUGAGCAUCA
B16: chr4:57314706:57314707:+_ENSG00000128050_ENST00000264221|hu_mus|hu_hu_hu_mus_True|78_108 (ssRNA)
RNA: GGGAGUUCUACAGUCCGACGAUCCAGUAUUUCAAAUAUAGCUUGUGUGGCAUGACUCAUGAUAUCCACUUCAGUCUGCCCUAUAACAAGGCCAGCAAAACAGAAUUUUGCAGCAAUGAGUUGCUCCUCAGACCACUGUGGAUCCAACAGAGGAUUGAGCAUCA
B17: chr4:115894766:115894767:+_ENSMUSG00000028698_ENSMUST00000030464|mus_hu|mus_mus_mus_hu_True|18_58 (ssRNA)
RNA: GGGAGUUCUACAGUCCGACGAUCUUCCACACGGAAAUGUACUUCGGGUUUUCCAACGGCCAGUACCAGUCCGGCCAACUACUAGGAACAGGGUCCUCCCCCUCUCUCCUACAGAACUAAAGCACCCGCCCCCGAACUUUCAAGCAACAGAGGAUUGAGCAUCA
B18: chr6:82862619:82862620:-_ENSMUSG00000000627_ENSMUST00000000641|mus_mus|motif|central (ssRNA)
RNA: GGGAGUUCUACAGUCCGACGAUCAACCUGCUUGUAAUUUCCUACACACUUUUCUGGGUUCCUUUUGUCAUCCCUCAAUAGCGGGAAUGUUGUGAAGUUCAUUUUAAAUGGAAGCCAAGGAAAGAGGGCUCAGCCUCCACUCCACAACAGAGGAUUGAGCAUCA
B19: chrX:71549400:71549401:+_ENSMUSG00000019087_ENSMUST00000019231|mus_hu|mus_mus_mus_hu_False|8_78 (ssRNA)
RNA: GGGAGUUCUACAGUCCGACGAUCGCAGUAGGAAGAGGGAAGCUCUUCAGUCCAGUGGUCACAAAACUGGGAAAGCAACAACACGGACACCGUCCCACCCUCAACCCCCCCACUGGCACAGGGUCACAUCUGGGUCAUCAAAGACAACAGAGGAUUGAGCAUCA
B20: 6858023_6858143_687_CDS_ENSG00000089693_ENST00000435120|human|control|control (ssRNA)
RNA: GGGAGUUCUACAGUCCGACGAUCGGGAGGCCCCUCCGCCCUUCGUCCCCCAGCCCCUGAGGACUCAAGCCGCCGAAACUCCAGGGGACGCUGCUGCCGGAAUCGGGAGGUCUCCCGCCGCCACUCGUCAUCAAACGCUGCGGCCAACAGAGGAUUGAGCAUCA
B21: 54184324_54186607_390_CDS_ENSMUSG00000021474_ENSMUST00000021930|mouse|control|control (ssRNA)
RNA: GGGAGUUCUACAGUCCGACGAUCCACAGCCGGUGUGGUCCGGUAGAAGGUCAUCAUGCAGCCUGUGAUGGUCAUGUUCAUCGGGACCUGAGCUGACAUUCUUCCUAUCAGAGUCAUCUUUUCACCGGUGUCAGGAUGGAAGGCCAACAGAGGAUUGAGCAUCA
B22: chr6:38652254:38652255:-_ENSG00000124767_ENST00000373365|hu_hu|hu_hu_hu_mus_False|48_58 (ssRNA)
RNA: GGGAGUUCUACAGUCCGACGAUCCGAGAACUUCAUAGCAGGGAAGUCAAGCUUCUGCAGGAGGGUCAGUCCAAGAACUCUAGUAUAAAAAUCCAGUGACUUCUUAGGAUCCUUAAUUCUUAGCAUCGUUUGCUGCAGUAGAAACAACAGAGGAUUGAGCAUCA

The other results are listed elsewhere or left out.

This assay concerns the target T1, UNK ZnF1-3 (human, UniProt Q9C0B0 31-174).
T1 sequence: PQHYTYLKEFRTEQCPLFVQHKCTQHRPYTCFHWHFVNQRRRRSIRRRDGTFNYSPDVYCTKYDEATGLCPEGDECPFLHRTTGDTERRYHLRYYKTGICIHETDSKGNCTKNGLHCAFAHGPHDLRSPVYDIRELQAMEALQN
Description: nsRBNS (natural sequence RNA bind-n-seq); RBNS binding buffer (assumed for nsRBNS): 25 mM Tris pH 7.5, 150 mM KCl, 3 mM MgCl2, 0.01% Triton X-100, 500 ug/ml BSA, 20 U/ml SUPERase-In, 4 C; UNK is unkempt and MSI1 is Musashi-1; names of the RNAs are library labels; protein concentration not given here; high values mean tight binding.
Turning to B1, the binding signal was found to be 0.632 enrichment R.

Molecule B2 had a binding signal of 0.773 enrichment R.

On to B3, for which the binding signal was determined as 0.775 enrichment R.

For the molecule B4, the binding signal is 0.656 enrichment R.

The molecule B5 came in with a binding signal of 2.1 enrichment R.

Take B6: the binding signal came out at 1.05 enrichment R.

B7 registered a binding signal of 0.756 enrichment R.

For B8, the binding signal was determined as 0.745 enrichment R.

Molecule B9 yielded a binding signal of 0.747 enrichment R.

In turn, B10 displayed a binding signal of 1.56 enrichment R.

For B11, the binding signal was 1.48 enrichment R.

As to B12, the binding signal came to 0.87 enrichment R.

For the molecule B13, the binding signal came to 3.01 enrichment R.

For B14, the binding signal is 1.47 enrichment R.

B15 returned a binding signal of 1.24 enrichment R.

B16 had a binding signal of 1.03 enrichment R.

In turn, B17 gave a binding signal of 1.14 enrichment R.

In the case of B18, the binding signal was determined as 0.74 enrichment R.

Take B19: the binding signal was determined as 1.98 enrichment R.

The molecule B20 gave a binding signal of 0.992 enrichment R.

On to B21, for which the binding signal was 0.862 enrichment R.

In the case of B22, the binding signal worked out at 1 enrichment R.
